Data on 34 variants can be found in the RNAGym collection of RNA variant scans (doi:10.1093/nar/gkz1192).

The source gives no read counts; variants with many changes may rest on few reads.

The chains are these.
B1: CPEB3 Ribozyme (parent)
chain: UAACAGGGGGCCACAGCAGAAGCGUUCACGUCGCAGCCCCUGUCAGAUUCUGGUGAAUCUGCGAAUUCUGCUGUAUAUCUC

Variants of B1 are the subject of the data set. The data set is described as follows: self-cleavage, relative activity (ratio to wild type); higher = more cleavage; in vitro, sequencing. In short, it runs like this:
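CPEB3 self-cleaving ribozyme mutant libraries were made by rounds of error-prone PCR, barcoded, and transcribed in vitro with T7 RNA polymerase for 5 hours at 37°C. Cleavage occurred during transcription and a 15 min DNase I step before EDTA stop. RNAs were reverse transcribed with template switching and Illumina-sequenced, with DNA sequencing mapping barcodes to variants. Relative activity is the variant's cleaved/total read fraction divided by wild type's (minimum 5 reads), averaged across three batches.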
On to UAACAGGGGGCCACAGCAGAAGCGUCCACGUCGCAGCCCCUGUCAGGUACUGGUGAAUCCGCGAAUUCAGCUGUAUAUCUC [U26C A47G U49A U60C U69A], for which the self-cleavage turned out to be 0.05. As for UAACAGGGGGCCACAGCAGAAGCGUCCACGUCGCAGCCCCUGUCGGAUUCUGGUGAAUCUGCGAAUUCUGGUGUAUAUCUC [U26C A45G C71G], the figure is 0.12.

UAACAGGGGGCCACAGCAGAAGCGUCCACGUCGCAGCCCCUGUCAGAUUCUGGUGAAUCUGCGUAUUCUGCUGUAAAUCUC [U26C A64U U76A]: the self-cleavage amounted to 0.1.

Regarding UAACAGGGGGCCACAGCAGAAGCGUCCACGUCGCAGCCCCUGUCAGGUUCUGGAGAAUCUGCGAAUUCUGCCGUAUAUCUC [U26C A47G U54A U72C], the self-cleavage worked out at 0.26. As for UAACAGGGGGCCACAGCAGAAGCGUCCACGUCGCAGUCCCUGUAUGAUUCUGGUGAAUCUGCGGAUUCUACUGUAUAUCUC [U26C C37U C44A A45U A64G G70A], the figure is 0.05; as for UAACAGGGGGCCACAGCAGAAGCGUCCACGUCGCAGCCCCUGUCGGAUUCUGGUGAAUCUGCGGAUCCUGCUGUAUAUCUC [U26C A45G A64G U67C], 0.09. With UAACAGGGGGCCACAGCAGAAGCGUCCACGUCGCAGCCCCUGUCAGGUUCUGGUGAAUCUGCGGAUUCUGCUGUAUAUCUC [U26C A47G A64G] the figure was 0.34; with UAACAGGGGGCCACAGCAGAAGCGUCCACGUCGCAGCCCCUGUCGGAUUCUGGUGAAUCUGCGAACUCUGCUGUAUAUCAC [U26C A45G U66C U80A], 0.62; with UAACAGGGGGCCACAGCAGAAGCGUCCACGUCGCAGCCCCUGUCAGAUUCUGGUGGAUCUGCGAAUUCUGCUGUAUAUCAC [U26C A56G U80A], 0.37. As for UAACAGGGGGCCACAGCAGAAGCGUCCACGUCGCGGCCCCUGUCAGAUUCUGGUGAAUCUGCGUAUUCUGCUGUAUAUCUC [U26C A35G A64U], the figure is 0.65; as for UAACAGGGGGCCACAGCAGAAGCGUCCACGUCGCAGCCCCUGUCAGGUUCUGGUGAAUCUGCGAAUCCUGCUGUAUAUCUC [U26C A47G U67C], 0.16; as for UAACAGGGGGCCACAGCAGAAGCGUCCACGUCGCAGCCCCUGUCGGAUUCUGGUGAAUCUGCGAAUUCUGCAGUAUUUCCC [U26C A45G U72A A77U U80C], 0.55. With UAACAGGGGGCCACAGCAGAAGCGUCCACGUCGCAGUCCCUGUCAGAUUCCGGUGAAUCUGCGAAUUCUGCUGUAUAUCUC [U26C C37U U51C], the self-cleavage is 0.17.

As for UAACAGGGGGCCACAGCAGAAGCGUCCACGUCGCAGCCCCUGUCGGUUUCAGGUGAAUCUGCGAAUUCUGCUGUAUAUCUC [U26C A45G A47U U51A], the self-cleavage turned out to be 0.09.

Regarding UAACAGGGGGCCACAGCAGAAGCGUCCACGUCGCAGCCCUUGCCAGGUUCUGGUGAAUCUGCGAAUUCUGCUGUACACCUC [U26C C40U U43C A47G U76C U78C], the self-cleavage is 0.07. On to UAACAGGGGGCCACAGCAGAAGCGUCCACGUCGCAGCCCCUGUCAGGCUCUGGUGAAUCUGCGAAUUCCGCUGUAUAUCUC [U26C A47G U48C U69C], for which the self-cleavage is 0.1.

Consider UAACAGGGGGCCACAGCAGAAGCGUCCACGUCGCUGCCCCUGUCAGAUUCUGGUGAAUCUGCGAAUUCUGCAGUAUAUCUC [U26C A35U U72A], for which the self-cleavage worked out at 0.08. As for UAACAGGGGGCCACAGCAGAAGCGUCCACGUCGCAGCCCCUGUCAGAUUCUGGUGAAUCUGCGGAUUCUGCCGUACAUCUC [U26C A64G U72C U76C], the figure is 0.23; as for UAACAGGGGGCCACAGCAGAAGCGUCCACGUCGCAGCCCCUGUCGGAUUCUGGUGUAUCUGCGAAUUCUGCUGUAUAUCUC [U26C A45G A56U], 0.19; as for UAACAGGGGGCCACAGCAGAAGCGUCCACGUCGCGGCCCCUGUCAGAUUCUGGUGAAUCUGCGAAUUCUGCAGUAUAUCUC [U26C A35G U72A], 0.57. With UAACAGGGGGCCACAGCAGAAGCGUCUACGUCGCAGCCCCUGUCAGAUUCUGGCGAAUCUGCGAAUACUGCUGUAUAUCUC [U26C C27U U54C U67A] the figure was 0.16; with UAACAGGGGGCCACAGCAGAAGCGUCCACGUCGCAGCCCCUGUCAGAUUCUGGUGGAUCUGCGAAUCCAGCUGUAUAUCUC [U26C A56G U67C U69A], 0.38; with UAACAGGGGGCCACAGCAGAAGCGUCCACGUCGCGGCCCCUGUCAGAUUCUGGUGAAUCUGCAAAUUCCGCUGUAUAUCUC [U26C A35G G63A U69C], 0.29. As for UAACAGGGGGCCACAGCAGAAGCGUCUACGUCGCAGCCCCUGUCAGAUUCUGGUGAAUCUGCGAGUCCUGCUGUAUAUGUC [U26C C27U A65G U67C C79G], the figure is 0.11. In the case of UAACAGGGGGCCACAGCAGAAGCGUCCACGUCGCAGCCCCUGUCCGAUUCUGGUGAAUCUGCGAAUUCUGCUGUAUGUCUC [U26C A45C A77G], the self-cleavage amounted to 0. In the case of UAACAGGGGGCCACAGCAGAAGCGUCCACGUCGCAGUCCCUGUCAGAUUCUGGAGAAUCUGCGAAUUCUGCUGUAUAUCUC [U26C C37U U54A], the self-cleavage was 0.32. With UAACAGGGGGCCACAGCAGAAGCGUCCACGUCGCAGCCACAGUCAGAUCCUGGUGAAUCUGCGAAUUCUGCUGUAUAUCUC [U26C C39A U41A U49C] the figure was 0.14; with UAACAGGGGGCCACAGCAGAAGCGUCCACGUCGCAGCCCCUGUCAGAUUCUGGUGAAUCUGCGGAUUCUGCCGUAUAUCUA [U26C A64G U72C C81A], 0.09. UAACAGGGGGCCACAGCAGAAGCGUCCACGUCGCGGCCCCUGUCAGAUCCUAGUGAAUCUGCGAAUUCUGCUGUAUAUCCC [U26C A35G U49C G52A U80C]: the self-cleavage was determined as 0.97.

As to UAACAGGGGGCCACAGCAGAAGCGUCCACGUCGCAGCCCCUGUCAGAUUCUGGUGAGUCUGCGAAUACUGCUGUAUAUCUC [U26C A57G U67A], the self-cleavage amounted to 0.2. With UAACAGGGGGCCACAGCAGAAGCGUCCACGUCGCAGCCCUUGUCAGAUUCUGGUGAAUCUGCGGAUUCUGCUGUAUAUCUC [U26C C40U A64G] the figure was 0.26. As for UAACAGGGGGCCACAGCAGAAGCGUCUACGUCACAGCCCCUGCCAGAUUCGGGUGAAUCUGCGAAUUCUGCUGUAUAUCUC [U26C C27U G33A U43C U51G], the figure is 0.2; as for UAACAGGGGGCCACAGCAGAAGCGUCCACGUCGCAGCCCCUGUCAGAUUCUGGUGAUUCUGCGAAUUCUGCUGUUUAUCUC [U26C A57U A75U], 0.18; as for UAACAGGGGGCCACAGCAGAAGCGUCCACGUCGCAGCCCCUGUCAGAUUCUGGUGAAUCUGCGGAUCCCGCUGUAUAUCUC [U26C A64G U67C U69C], 0.15.
